# Results as given in the supplement of paper PMC3334620.
# In all, about 33,000 sequences were measured (“E-score (-0.5 to 0.5)”: median about -0.012, highest 2% from about 0.27 on). The list shows a part of the results.
# Molecular target: T1, Vhr1 (UniProt P40522)
# T1 sequence: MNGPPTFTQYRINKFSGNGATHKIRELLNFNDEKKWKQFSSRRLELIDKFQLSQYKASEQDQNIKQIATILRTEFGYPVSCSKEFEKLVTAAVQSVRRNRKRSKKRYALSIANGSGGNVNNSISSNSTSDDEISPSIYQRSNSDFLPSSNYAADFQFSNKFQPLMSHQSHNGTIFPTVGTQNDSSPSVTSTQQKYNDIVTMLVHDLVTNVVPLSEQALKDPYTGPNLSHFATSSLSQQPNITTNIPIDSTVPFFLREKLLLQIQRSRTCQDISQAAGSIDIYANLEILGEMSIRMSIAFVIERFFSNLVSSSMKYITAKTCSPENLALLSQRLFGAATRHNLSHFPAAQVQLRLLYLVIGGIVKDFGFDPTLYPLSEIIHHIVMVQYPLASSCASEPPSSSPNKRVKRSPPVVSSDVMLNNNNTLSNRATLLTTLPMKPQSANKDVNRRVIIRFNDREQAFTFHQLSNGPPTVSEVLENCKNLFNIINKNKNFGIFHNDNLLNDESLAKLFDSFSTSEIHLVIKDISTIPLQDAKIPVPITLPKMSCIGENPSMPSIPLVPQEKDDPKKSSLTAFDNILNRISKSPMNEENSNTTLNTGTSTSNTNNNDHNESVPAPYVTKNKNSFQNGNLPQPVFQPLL
# Experiment: PBM E-score (8-mer binding enrichment) (E-score (-0.5 to 0.5)); higher = stronger / more preferred TF binding; most listed sequences are background and not binding sites
# Conditions: protein concentration: 200 nM; construct: GST-full length
# Outline: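 Each ungapped eight-base word and its reverse complement, pooled, received an E-score from the Universal PBM Analysis Suite. Underlying scans, normalised with masliner, recorded fluorescent anti-GST bound to GST-tagged yeast transcription factors. These were applied at about 100-200 nM to universal all-10-mer Agilent arrays double-stranded by primer extension.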
row,Sequence,PBM E-score
1,ATTGAATA,0.0225
2,CGAACGGC,-0.124
3,ATTATGAG,0.0245
4,ATCCACAG,0.167
5,AGTAGGGG,-0.101
6,AGTCTTCA,0.011
7,AAAGTTGT,0.0763
8,AACGAGGC,-0.0752
9,AGGTCGGA,0.0419
10,TGCTTAAA,-0.175
11,GCCCTTCA,-0.063
12,CATGTATC,0.18
13,CCAACGGG,0.147
14,CGGTATCA,0.148
15,GACGTCCC,-0.166
16,AGAACATG,0.101
17,CGGCTGCC,0.18
18,AGGATGTG,0.142
19,ACGGGCCG,-0.114
20,TCCAGTCA,0.0988
21,GATTTAGC,0.0206
22,TAAACCAA,-0.277

row,Sequence,PBM E-score
1,ATTTACTC,0.0979
2,AGCGTAAT,-0.0972
3,CCTCGTCG,0.119
4,CAGGGGTC,-0.0113
5,TGGAGCCA,0.0769
6,AGATAGGC,-0.0638
7,TACTAAGA,0.0316
8,AAGACTGG,0.084
9,CGACAGAG,0.0418
10,CGAGTCCG,0.286
11,CTGGAAAA,-0.0136
12,CTGCGGAC,-0.0734
13,CTAGTTAA,-0.054
14,AACTCGGC,0.00687
15,GGGTCCAC,-0.152
16,ACTGCAGA,-0.0788
17,ACCACAGC,0.0438
18,TCGTGACA,0.0389
19,CCCCCGGG,-0.0967
20,GGAGCAGA,-0.186
21,AGAAGGTC,0.103
22,GAGGTGGA,-0.125

row,Sequence,PBM E-score
1,GCCGAGGA,0.109
2,ACCGAAGG,-0.0663
3,AGAAGTAT,0.0798
4,CGCGTAGA,-0.109
5,AGCACGGG,-0.0752
6,CATACCTA,0.154
7,ACGTGCCG,-0.0795
8,CAATAGAG,-0.121
9,AATGACAT,0.0292
10,TAAAGTAA,-0.152
11,ACCTCAAG,-0.142
12,CATTGAAC,0.109
13,CTTGACCC,-0.161
14,AGATCAGG,-0.109
15,GTTCTATA,0.0332
16,CTTCATGC,-0.0664
17,AGCGTCAC,-0.205
18,ACCGCCAG,0.104
19,GAAAGTAA,-0.149
20,AAGTGACG,-0.126
21,ACATCGGT,0.204
22,AAGAGCAA,-0.202

row,Sequence,PBM E-score
1,CCCATAGA,-0.0433
2,CGCTAAAA,-0.0348
3,GTGCGCAC,0.264
4,CCTGATAG,-0.168
5,ATCGGTCC,-0.0251
6,AGAGCTCG,-0.206
7,GTCTCGGA,0.111
8,AGGCTTGC,-0.173
9,CTTCAGGA,0.0283
10,AGTCAAAA,0.0686
11,CCAGCATA,0.0195
12,ACACTTCA,-0.147
13,ATGATTCC,0.445
14,GAGTCGAA,0.269
15,GGCGCGTA,-0.0776
16,GATATTCC,-0.00471
17,CCCCCCTA,-0.172
18,CGCATATA,-0.00473
19,TATGCACA,0.0469
20,ACTTTACC,0.0552
